The other results are listed elsewhere or left out.
Each compound was assayed on S. aureus RN4220 (assay: growth inhibition call (relative growth <= 0.2)). Conditions: 50 µM.
For C[C@@H]1CN([C@@H](C)CO)S(=O)(=O)c2ccc(C#Cc3cccc(F)c3)cc2O[C@H]1CN(C)S(=O)(=O)c1cn(C)cn1, the growth inhibition call was “inactive”. CN(C)C(=O)CN1C[C@@H]2CCN(C(=O)[C@H]3CCCO3)CC[C@H]2S1(=O)=O was tested, and the growth inhibition call was “inactive”. In the case of C[C@@H]1CCCCO[C@@H](CN(C)C(=O)Nc2ccccc2)[C@H](C)CN([C@H](C)CO)C(=O)c2cc(NC(=O)C3CCCCC3)ccc2O1, the growth inhibition call was “inactive”. In the case of CON=C(C(=O)NC1C(=O)N2C(C(=O)O)=C(CSC(=O)c3ccco3)CSC12)c1csc(N)n1.Cl (configuration not stated), the growth inhibition call was “active”. COc1cc2c(cc1OC)CN(C(=O)[C@@H]1[C@H]3C(=O)O[C@H](c4ccccc4)[C@H](c4ccccc4)N3[C@H](c3ccc(OCCO)cc3)[C@@]13C(=O)Nc1ccc(C#CC4(O)CCCCCC4)cc13)CC2 was tested, and the growth inhibition call was “inactive”. For C[C@@H]1CN([C@H](C)CO)C(=O)c2cc(NC(=O)Nc3ccc(C(F)(F)F)cc3)ccc2O[C@@H](C)CCCCO[C@@H]1CN(C)Cc1ccccc1, the growth inhibition call was “inactive”. In the case of C[C@@H]1CN([C@@H](C)CO)C(=O)c2cccc(NC(=O)C3CCCCC3)c2O[C@@H]1CN(C)C(=O)Nc1ccc(C(F)(F)F)cc1, the growth inhibition call was “active”. For C[C@H](CO)N1C[C@H](C)[C@@H](CN(C)CC2CCCCC2)OCCCC[C@H](C)Oc2ccc(NC(=O)Cc3ccccc3)cc2C1=O, the growth inhibition call was “inactive”. For C[C@H](CO)N1C[C@H](C)[C@H](CN(C)S(=O)(=O)c2ccccc2)Oc2ccc(NC(=O)Cc3ccccc3)cc2CC1=O, the growth inhibition call was “inactive”. For O=C(C[C@@H]1CC[C@@H]2[C@H](COC[C@@H](O)CN2S(=O)(=O)c2ccc(Cl)cc2)O1)N[C@@H]1CCN(Cc2ccccc2)C1, the growth inhibition call was “inactive”. For COc1cccc(-c2cnc3c(c2)C(=O)N([C@H](C)CO)C[C@H](C)[C@H](CN(C)S(=O)(=O)c2ccc(F)cc2)O3)c1, the growth inhibition call was “inactive”. For COc1ccc(NC(=O)N(C)C[C@@H]2OCCCC[C@H](C)Oc3ccc(NS(=O)(=O)c4ccc(C)cc4)cc3C(=O)N([C@H](C)CO)C[C@@H]2C)cc1, the growth inhibition call was “inactive”. Cc1noc(C)c1S(=O)(=O)N(C)C[C@H]1Oc2ccc(N(C)C)cc2CC(=O)N([C@H](C)CO)C[C@H]1C was tested, and the growth inhibition call was “inactive”. COc1ccc(NC(=O)Nc2cccc3c2O[C@H](CN(C)CC2CCCCC2)[C@@H](C)CN([C@H](C)CO)C3=O)cc1 was tested, and the growth inhibition call was “inactive”. With CC(C)NC(=O)N(C)C[C@@H]1OCCCC[C@@H](C)Oc2ccc(NC(=O)CCCCCC(=O)Nc3ccccc3N)cc2C(=O)N([C@H](C)CO)C[C@@H]1C the growth inhibition call was “inactive”. For Cc1noc(C)c1NC(=O)N(C)C[C@H]1Oc2ccc(NS(=O)(=O)c3cn(C)cn3)cc2C(=O)N([C@H](C)CO)C[C@H]1C, the growth inhibition call was “inactive”. With C[C@@H]1CN([C@@H](C)CO)C(=O)c2cc(N(C)C)ccc2O[C@@H](C)CCCCO[C@H]1CN(C)S(=O)(=O)c1cn(C)cn1 the growth inhibition call was “inactive”. With C[C@@H]1CN([C@@H](C)CO)C(=O)c2cc(NC(=O)C3CCCCC3)ccc2O[C@@H](C)CCCCO[C@@H]1CN(C)C(=O)CCC(F)(F)F the growth inhibition call was “inactive”. In the case of C[C@H]1CCCCO[C@H](CN(C)S(=O)(=O)c2ccc(Cl)cc2)[C@@H](C)CN([C@@H](C)CO)C(=O)c2cc(NC(=O)Nc3ccc4c(c3)OCO4)ccc2O1, the growth inhibition call was “inactive”. COc1ccc(S(=O)(=O)N(C)C[C@@H]2Oc3ncc(C#Cc4cccc(F)c4)cc3C(=O)N([C@H](C)CO)C[C@@H]2C)cc1 was tested, and the growth inhibition call was “inactive”. For CO[C@H]1O[C@H](CO)[C@@H](OC(=O)Nc2ccc3c(c2)OCO3)[C@H](OC(=O)Nc2ccc3c(c2)OCO3)[C@@H]1OC(=O)Nc1ccc2c(c1)OCO2, the growth inhibition call was “inactive”. CCOC(=O)C(CCc1ccccc1)NC(C)C(=O)N1Cc2cc(OC)c(OC)cc2CC1C(=O)O.Cl (configuration not stated) was tested, and the growth inhibition call was “inactive”. Cc1noc(C)c1NC(=O)Nc1ccc2c(c1)CC(=O)N([C@H](C)CO)C[C@H](C)[C@@H](CN(C)S(=O)(=O)c1c(C)noc1C)O2 was tested, and the growth inhibition call was “inactive”. For C[C@@H]1CCCCO[C@H](CN(C)C(=O)Nc2ccc3c(c2)OCO3)[C@H](C)CN([C@H](C)CO)C(=O)c2cc(NC(=O)Nc3ccc(C(F)(F)F)cc3)ccc2O1, the growth inhibition call was “inactive”. Cn1c(=O)c(F)c(Nc2ccc(I)cc2F)c2c(=O)n(C[C@@H](O)CO)cnc21 was tested, and the growth inhibition call was “inactive”. For C[C@@H]1CN([C@@H](C)CO)C(=O)Cc2cc(NS(C)(=O)=O)ccc2O[C@@H]1CN(C)Cc1ccc2c(c1)OCO2, the growth inhibition call was “inactive”. In the case of C[C@@H]1CN([C@H](C)CO)C(=O)Cc2cc(NS(=O)(=O)c3ccc(Cl)cc3)ccc2O[C@@H]1CN(C)Cc1ccc(-c2ccccc2)cc1, the growth inhibition call was “inactive”.
